Our source for the cytotoxicity call and growth inhibition call values is the antibiotic and cytotoxicity screens of Wong et al. (2023).

Structures are written as SMILES. The list shows a part of the results.

The first test concerns HepG2. Description: cytotoxicity call (relative viability < 0.9). The conditions noted are these: 10 µM.
With `CCOC(=O)CCCCCC(=O)Nc1ccc2c(c1)C(=O)N([C@@H](C)CO)C[C@H](C)[C@H](CN(C)C(=O)c1ccccc1)OCCCC[C@H](C)O2`, the cytotoxicity call was “inactive”. Same read-out and setting: with `C[C@@H]1CN([C@H](C)CO)C(=O)c2cc(NS(=O)(=O)c3cccs3)ccc2O[C@@H]1CN(C)Cc1ccncc1` the entry was “inactive”.

As for `CCc1ccc(Nc2c3c(nc4ccccc24)CCCC3)cc1`, the cytotoxicity call is “active”. In the case of `C[C@@H]1CCCCO[C@H](CN(C)S(=O)(=O)c2ccc(F)cc2)[C@H](C)CN([C@H](C)CO)C(=O)c2cc(NC(=O)CCC(F)(F)F)ccc2O1`, the cytotoxicity call was “inactive”. The same measure, in the same setting: under `COCCNC(=O)C[C@@H]1CC[C@H](NS(=O)(=O)c2ccc(C)cc2)[C@@H](CO)O1` stands “inactive”. The same measure, in the same setting: under `CC(C)NC(=O)Nc1ccc2c(c1)C(=O)N([C@@H](C)CO)C[C@@H](C)[C@H](CN(C)S(C)(=O)=O)OCCCC[C@@H](C)O2` stands “inactive”; under `C[C@@H]1CN([C@H](C)CO)S(=O)(=O)c2ccc(C#C[C@@H](C)O)cc2O[C@@H]1CN(C)C`, “inactive”. Still for that read-out and setting: under `C=CC[C@@H](CC(=O)N[C@H](CO)Cc1ccccc1)C(=O)N[C@H](C)COC(=O)[C@@H](CC=C)CC(=O)OC(C)(C)C` stands “inactive”.

The next test deals with S. aureus RN4220. Description: growth inhibition call (relative growth <= 0.2). The note with it: 50 µM.
With `CC(=O)O[C@H]1[C@H](O)[C@@H](O[C@@H]2C[C@](C)(O[C@H]3O[C@H](C)[C@H](O)[C@H](O)[C@@H]3O[C@@H]3O[C@H](C)[C@@H](O)[C@H](O)[C@@H]3O)O[C@@H]3CC[C@H]4C(C)(C)CCC[C@]4(C)[C@@H]23)O[C@@H](CO)[C@H]1O`, the growth inhibition call is “inactive”. As for `C=CCOC(=O)[C@H]1[C@@H]2C(=O)O[C@@H](c3ccccc3)[C@@H](c3ccccc3)N2[C@@H](c2ccc(OCCOC(=O)[C@H]3C[C@H]4C(=O)N[C@@H](Cc5ccccc5)C(=O)N4[C@H]3c3cccc(OCCO)c3)cc2)[C@]12C(=O)Nc1ccc(I)cc12`, the growth inhibition call was “inactive”.

`COc1ccc(NC(=O)Nc2ccc3c(c2)C(=O)N([C@H](C)CO)C[C@@H](C)[C@@H](CN(C)Cc2ccc(-c4ccccc4)cc2)O3)cc1`: the growth inhibition call is “inactive”.

Take `C[C@@H]1CN([C@@H](C)CO)C(=O)Cc2cc(NC(=O)Nc3cccc4ccccc34)ccc2O[C@@H]1CN(C)C(=O)Nc1ccc(F)cc1`: the growth inhibition call was “inactive”. As to `C[C@@H]1CN([C@@H](C)CO)C(=O)c2cccc(NC(=O)Nc3ccc4c(c3)OCO4)c2O[C@@H]1CN(C)Cc1ccc(Oc2ccccc2)cc1`, the growth inhibition call is “inactive”. Consider `CCn1nnc2c(N3CCOCC3)ncnc21`, for which the growth inhibition call was “inactive”.

Turning to `C[C@H]1CN([C@@H](C)CO)C(=O)c2cc(NC(=O)CCN3CCOCC3)ccc2O[C@H]1CN(C)Cc1ccccc1`, the growth inhibition call is “inactive”. Same read-out and setting: under `C[C@@H]1CCCCO[C@H](CN(C)Cc2ccc3c(c2)OCO3)[C@H](C)CN([C@H](C)CO)C(=O)c2cc(NC(=O)CCC(F)(F)F)ccc2O1` stands “inactive”; under `N[C@H]1CCN(c2ccc(C(F)(F)F)cn2)C1`, “inactive”; under `C[C@@H]1CN([C@@H](C)CO)C(=O)Cc2cc(NC(=O)c3ccncc3)ccc2O[C@H]1CN(C)Cc1ccncc1`, “inactive”.

For `C[C@H]1CN([C@@H](C)CO)C(=O)Cc2cc(NC(=O)Nc3ccc(C(F)(F)F)cc3)ccc2O[C@H]1CN(C)C(=O)Nc1cccc2ccccc12`, the growth inhibition call was “inactive”.

`C[C@H](CO)N1C[C@H](C)[C@@H](CN(C)C(=O)Nc2cccc3ccccc23)Oc2c(NS(=O)(=O)c3cccs3)cccc2C1=O`: the growth inhibition call was “inactive”. `COc1ccc(cc1)S(=O)(=O)N1C[C@]2(C1)CN([C@H](CO)c1c2c2ccc(cc2n1C)OC)C(=O)c1cccnc1`: the growth inhibition call was “inactive”.

Turning to `CCO[C@H]1OC(C(=O)N2CCOCC2)=C[C@@H](c2ccc3c(c2)OCO3)[C@@H]1CCCOC(=O)NCCCCCC(=O)NO`, the growth inhibition call was “inactive”. Regarding `Cc1noc(C)c1NC(=O)Nc1ccc2c(c1)C(=O)N([C@@H](C)CO)C[C@@H](C)[C@@H](CN(C)S(=O)(=O)c1ccc(Cl)cc1)OCCCC[C@H](C)O2`, the growth inhibition call is “inactive”. As for `CN(C)CCN1CCN(C)C2(CCN(C(=O)[C@H]3CCCO3)CC2)C1=O`, the growth inhibition call is “inactive”. The same measure, in the same setting: under `O=C(CS(=O)(=O)c1cccc2nsnc12)N1CC(=O)N(CCc2ccccc2)C(=O)C1` stands “inactive”; under `COc1ccc(NC(=O)N[C@H]2CC[C@H](CCNC(=O)CN3CCOCC3)O[C@@H]2CO)cc1`, “inactive”; under `COc1nsnc1N1CCOCC1`, “inactive”. On the same count and under the same terms, under `Cc1cc(=O)oc2cc(O[C@H]3O[C@@H](CO)[C@@H](O)[C@@H](O)[C@@H]3O)ccc12` stands “inactive”. Turning to `O=C(C[C@H]1CC[C@@H]2[C@H](COC[C@H](O)CN2S(=O)(=O)c2ccc(Cl)cc2)O1)NCCN1CCCC1`, the growth inhibition call is “inactive”. On to `C[C@H]1CN([C@@H](C)CO)C(=O)Cc2cc(NC(=O)C3CC3)ccc2O[C@@H]1CN(C)S(=O)(=O)c1ccc(Cl)cc1`, for which the growth inhibition call was “inactive”.

Turning to `C[C@@H]1CCCCO[C@H](CN(C)C(=O)Nc2ccc(C(F)(F)F)cc2)[C@H](C)CN([C@H](C)CO)C(=O)c2cc(NC(=O)Cc3ccccc3)ccc2O1`, the growth inhibition call was “inactive”. Same read-out and setting: under `Cc1noc(C)c1S(=O)(=O)Nc1cccc2c1O[C@@H](CN(C)C(=O)NC1CCCCC1)[C@@H](C)CN([C@H](C)CO)C2=O` stands “inactive”; under `C[C@H](CO)N1C[C@H](C)[C@H](CN(C)Cc2ccncc2)Oc2c(NC(=O)Nc3cccc4ccccc34)cccc2C1=O`, “inactive”. Same read-out and setting: with `COc1ccc(NC(=O)N(C)C[C@H]2Oc3ccc(NC(=O)CCN4CCOCC4)cc3C(=O)N([C@@H](C)CO)C[C@@H]2C)cc1` the entry was “inactive”. The same measure, in the same setting: with `C[C@@H]1CCCCO[C@@H](CN(C)CC2CC2)[C@@H](C)CN([C@H](C)CO)C(=O)c2cc(NC(=O)c3ccccc3)ccc2O1` the entry was “inactive”; with `C[C@H](CO)N1C[C@H](C)[C@@H](CN(C)Cc2ccc(Oc3ccccc3)cc2)Oc2ccc(NC(=O)Nc3ccccc3)cc2CC1=O`, “inactive”. In the case of `CCCNC(=O)N1C[C@H]2[C@@H](c3ccccc31)[C@H](CO)N2C(=O)CN1CCOCC1`, the growth inhibition call was “inactive”.

For the compound `C[C@@H]1CN([C@H](C)CO)S(=O)(=O)c2ccc(C#Cc3ccncc3)cc2O[C@@H]1CN(C)C(=O)C1CCC1`, the growth inhibition call is “inactive”. For `C[C@@H]1CN([C@H](C)CO)C(=O)c2cc(NC(=O)C3CCCCC3)ccc2O[C@@H]1CN(C)Cc1ccc(Oc2ccccc2)cc1`, the growth inhibition call is “inactive”.

On to `Cc1ccc(S(=O)(=O)N(C)C[C@@H]2OCCCC[C@@H](C)Oc3ccc(NC(=O)Nc4ccc(C(F)(F)F)cc4)cc3C(=O)N([C@H](C)CO)C[C@@H]2C)cc1`, for which the growth inhibition call was “inactive”.

Take `CCOC(=O)CCCCCC(=O)Nc1ccc2c(c1)C(=O)N([C@@H](C)CO)C[C@H](C)[C@H](CN(C)C(=O)c1ccccc1)OCCCC[C@H](C)O2`: the growth inhibition call was “inactive”. Same read-out and setting: under `C[C@@H]1CN([C@H](C)CO)C(=O)c2cc(NS(=O)(=O)c3cccs3)ccc2O[C@@H]1CN(C)Cc1ccncc1` stands “inactive”; under `CCc1ccc(Nc2c3c(nc4ccccc24)CCCC3)cc1`, “inactive”. On the same count and under the same terms, with `C[C@@H]1CCCCO[C@H](CN(C)S(=O)(=O)c2ccc(F)cc2)[C@H](C)CN([C@H](C)CO)C(=O)c2cc(NC(=O)CCC(F)(F)F)ccc2O1` the entry was “inactive”. The same measure, in the same setting: under `COCCNC(=O)C[C@@H]1CC[C@H](NS(=O)(=O)c2ccc(C)cc2)[C@@H](CO)O1` stands “inactive”; under `CC(C)NC(=O)Nc1ccc2c(c1)C(=O)N([C@@H](C)CO)C[C@@H](C)[C@H](CN(C)S(C)(=O)=O)OCCCC[C@@H](C)O2`, “inactive”. `C[C@@H]1CN([C@H](C)CO)S(=O)(=O)c2ccc(C#C[C@@H](C)O)cc2O[C@@H]1CN(C)C`: the growth inhibition call was “inactive”. In the case of `C=CC[C@@H](CC(=O)N[C@H](CO)Cc1ccccc1)C(=O)N[C@H](C)COC(=O)[C@@H](CC=C)CC(=O)OC(C)(C)C`, the growth inhibition call was “inactive”.
